According to the supplement of paper PMC3334620:
The full ranking holds about 33,000 sequences; the median of “E-score (-0.5 to 0.5)” is about -0.053, and the highest 2% start at about 0.37. The list shows a part of the results.

target: Hap1 (UniProt P0CE41); assay: PBM E-score (8-mer binding enrichment) (E-score (-0.5 to 0.5)); higher = stronger / more preferred TF binding; most listed sequences are background and not binding sites; settings: protein concentration: 200 nM; construct: GST-DNA-binding domain
Outline: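 Full-length yeast transcription factors or their DNA-binding domains, GST-tagged and expressed with PURExpress, were applied at about 100-200 nM to universal all-10-mer Agilent arrays. These arrays had been made double-stranded by primer extension on fresh or once-stripped slides. Detection used fluorescent anti-GST, normalisation used masliner, and E-scores for ungapped eight-base words pooled with reverse complements came from the Universal PBM Analysis Suite.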

UniProt P0CE41, sequence (P0CE41 whole entry, the tested form may be a part): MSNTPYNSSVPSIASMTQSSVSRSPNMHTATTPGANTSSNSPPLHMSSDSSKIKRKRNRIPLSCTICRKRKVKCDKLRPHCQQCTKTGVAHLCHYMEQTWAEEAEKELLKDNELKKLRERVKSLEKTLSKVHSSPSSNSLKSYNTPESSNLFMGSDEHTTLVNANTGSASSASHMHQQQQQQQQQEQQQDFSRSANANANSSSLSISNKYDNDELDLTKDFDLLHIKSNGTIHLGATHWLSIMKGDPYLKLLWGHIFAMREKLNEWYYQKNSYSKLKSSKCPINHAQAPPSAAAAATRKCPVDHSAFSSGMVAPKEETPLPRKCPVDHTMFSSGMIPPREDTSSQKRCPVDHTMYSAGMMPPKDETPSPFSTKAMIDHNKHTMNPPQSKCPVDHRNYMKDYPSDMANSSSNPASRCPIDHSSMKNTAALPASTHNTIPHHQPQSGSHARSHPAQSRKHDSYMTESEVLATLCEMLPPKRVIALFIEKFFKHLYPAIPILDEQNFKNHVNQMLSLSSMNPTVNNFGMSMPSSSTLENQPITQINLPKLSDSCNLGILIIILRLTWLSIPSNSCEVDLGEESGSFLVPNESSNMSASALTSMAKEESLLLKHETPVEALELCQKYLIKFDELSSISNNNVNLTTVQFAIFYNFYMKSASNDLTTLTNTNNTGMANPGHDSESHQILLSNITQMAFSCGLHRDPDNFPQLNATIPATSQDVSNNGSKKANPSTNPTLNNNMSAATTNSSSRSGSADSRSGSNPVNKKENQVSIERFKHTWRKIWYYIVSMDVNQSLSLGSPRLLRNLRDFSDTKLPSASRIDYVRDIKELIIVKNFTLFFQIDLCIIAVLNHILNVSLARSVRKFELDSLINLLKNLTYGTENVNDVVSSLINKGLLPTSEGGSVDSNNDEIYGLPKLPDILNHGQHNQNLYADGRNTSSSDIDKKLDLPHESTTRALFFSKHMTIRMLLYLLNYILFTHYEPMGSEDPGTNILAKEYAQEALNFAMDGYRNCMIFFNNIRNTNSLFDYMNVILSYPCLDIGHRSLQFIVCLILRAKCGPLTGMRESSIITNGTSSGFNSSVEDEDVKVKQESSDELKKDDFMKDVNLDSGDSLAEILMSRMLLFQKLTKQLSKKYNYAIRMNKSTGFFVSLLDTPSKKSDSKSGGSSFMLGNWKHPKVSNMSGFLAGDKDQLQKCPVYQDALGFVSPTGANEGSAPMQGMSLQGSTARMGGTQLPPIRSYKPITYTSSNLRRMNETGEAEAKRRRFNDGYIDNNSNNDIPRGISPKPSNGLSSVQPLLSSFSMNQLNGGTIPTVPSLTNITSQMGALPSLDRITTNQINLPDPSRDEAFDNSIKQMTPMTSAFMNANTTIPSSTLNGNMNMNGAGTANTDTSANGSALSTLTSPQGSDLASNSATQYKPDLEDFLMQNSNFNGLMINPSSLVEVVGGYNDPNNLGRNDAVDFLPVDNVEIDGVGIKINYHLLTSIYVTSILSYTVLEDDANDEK

Going from AACAAGTC to AAGACATA, the “PBM E-score” value falls from -0.122 to -0.22.

Compared with CTCGGGGA, CTCCAGAA is lower in “PBM E-score” value: 0.36 for the first, -0.216 for the second.

First: ACATCTAT
Second: GGACATAA
The “PBM E-score” value of the first is lower: 0.0372 for the first, 0.337 for the second.

Going from AGCACCCC to CGCGGGAA, the “PBM E-score” value rises from -0.195 to 0.312.

Compared with GTGAGTTA, AGTGATGA is higher in “PBM E-score” value: -0.157 for the first, -0.14 for the second.

Compared with CTCGCAAG, AGTATTAA is higher in “PBM E-score” value: -0.135 for the first, -0.0546 for the second.

Going from ATGGGGCA to CAACTGAA, the “PBM E-score” value falls from -0.0948 to -0.275.

Going from GGAGATCA to ACCCAGGC, the “PBM E-score” value falls from 0.162 to 0.00897.

Compared with CCGCCGAA, CTCGCCCC is lower in “PBM E-score” value: 0.38 for the first, 0.0616 for the second.

Going from TAGTAAGA to ATAATAAG, the “PBM E-score” value rises from -0.127 to -0.0312.

First: CGGCGGTC
Second: CCTCACTC
The “PBM E-score” value of the first is higher: 0.244 for the first, -0.143 for the second.

Compared with AGGCTAAC, GTGTTGTA is higher in “PBM E-score” value: -0.16 for the first, -0.157 for the second.

First: CAACACCC
Second: CAGTGTCC
The “PBM E-score” value of the first is lower: -0.172 for the first, 0.0554 for the second.

Compared with CCACCTTA, GTCAGGAA is lower in “PBM E-score” value: -0.00422 for the first, -0.161 for the second.

Going from ATAGCTTG to ACGCTGAT, the “PBM E-score” value rises from -0.162 to -0.145.

First: AACCGGCT
Second: GTAAAATA
The “PBM E-score” value of the first is higher: 0.252 for the first, -0.0903 for the second.

First: AATGAGCG
Second: CGATATCC
The “PBM E-score” value of the first is lower: 0.0776 for the first, 0.375 for the second.

Going from AATTGGTG to GCGTCCAC, the “PBM E-score” value rises from -0.185 to 0.0208.

First: CGTATAAC
Second: ACGGCGTC
The “PBM E-score” value of the first is lower: 0.0381 for the first, 0.141 for the second.

Compared with GCTTAAAA, CATTTCCA is lower in “PBM E-score” value: 0.00391 for the first, -0.0971 for the second.

Compared with ATACTGCC, CTCCATCC is lower in “PBM E-score” value: -0.0351 for the first, -0.0736 for the second.

Going from GGTATGGA to AACAACCA, the “PBM E-score” value falls from 0.03 to -0.195.

Going from ACGCGTAG to CATCACGG, the “PBM E-score” value falls from 0.138 to 0.107.

Compared with ATACAAGA, GGATCTAC is higher in “PBM E-score” value: -0.141 for the first, 0.00203 for the second.

First: AACTGACC
Second: CGATGTAA
The “PBM E-score” value of the first is higher: 0.228 for the first, 0.0913 for the second.

Going from CCCAATGA to AAGGTGCT, the “PBM E-score” value rises from -0.257 to -0.0594.

Going from TCGAAAGA to CTAAGCAC, the “PBM E-score” value falls from -0.114 to -0.141.

Compared with GACTAGGC, CCATCCTA is higher in “PBM E-score” value: -0.178 for the first, -0.103 for the second.

First: CGGGCCAC
Second: TAGAATCA
The “PBM E-score” value of the first is higher: 0.27 for the first, -0.0228 for the second.

First: ACTAGTGA
Second: ATTAACCC
The “PBM E-score” value of the first is lower: -0.208 for the first, 0.25 for the second.

Compared with CTCCCTTA, CCCATGTC is lower in “PBM E-score” value: -0.068 for the first, -0.0857 for the second.

Compared with CACGGGAC, GCCCAAGC is lower in “PBM E-score” value: 0.18 for the first, 0.0262 for the second.

First: AATGCGAC
Second: GCAGCCGC
The “PBM E-score” value of the first is higher: 0.136 for the first, 0.0279 for the second.

Going from CTAAATTA to AGTAGCGC, the “PBM E-score” value rises from -0.0489 to 0.0359.

Going from GCTTGGAC to GGTCGCCA, the “PBM E-score” value rises from -0.2 to 0.00282.

Going from AAAACTTG to CACTGTCC, the “PBM E-score” value rises from -0.199 to -0.0124.

First: CTGCAACC
Second: AACTGATA
The “PBM E-score” value of the first is lower: -0.215 for the first, -0.105 for the second.

Compared with CATTTGAA, CTCTCCGC is higher in “PBM E-score” value: 0.0136 for the first, 0.0772 for the second.

Going from CCCAGCCG to GTACTTTA, the “PBM E-score” value falls from 0.0905 to -0.153.

First: GTTAGTTA
Second: AATAGATG
The “PBM E-score” value of the first is higher: 0.0774 for the first, -0.118 for the second.

Going from CGTGCTGC to GCCGAGCC, the “PBM E-score” value rises from -0.049 to 0.346.

First: ACACTCGA
Second: ATGACCGA
The “PBM E-score” value of the first is lower: -0.211 for the first, 0.378 for the second.

First: CTACCCGA
Second: AGAGGCGG
The “PBM E-score” value of the first is higher: 0.161 for the first, -0.0563 for the second.

Going from AAACTCTG to CGGGCACC, the “PBM E-score” value rises from -0.0642 to 0.185.

Compared with AAAAGTTC, ATTTTCTA is lower in “PBM E-score” value: 0.0472 for the first, -0.124 for the second.

Compared with GGTACCAA, TAGTGAAA is lower in “PBM E-score” value: 0.0294 for the first, -0.218 for the second.

Compared with CGTACTAG, GGACCTTA is higher in “PBM E-score” value: -0.263 for the first, 0.245 for the second.

Compared with CCCTAGGC, AGGGTCGG is higher in “PBM E-score” value: -0.148 for the first, 0.111 for the second.

Compared with AGAGCACT, CGGGTATA is higher in “PBM E-score” value: -0.0757 for the first, 0.435 for the second.

First: CCCTTGCG
Second: ATGCGTAA
The “PBM E-score” value of the first is higher: -0.0607 for the first, -0.0748 for the second.

First: TATACCCA
Second: CGCAAGTC
The “PBM E-score” value of the first is higher: -0.0183 for the first, -0.0565 for the second.

First: AGTGTATC
Second: AGTCCCCG
The “PBM E-score” value of the first is lower: 0.0169 for the first, 0.158 for the second.

First: AGTGAGAT
Second: AATTGATC
The “PBM E-score” value of the first is lower: -0.151 for the first, -0.0111 for the second.

First: GAAACACC
Second: CCGCTGGC
The “PBM E-score” value of the first is higher: 0.0567 for the first, -0.00858 for the second.

Going from CATAAGGG to GCCCACTA, the “PBM E-score” value falls from 0.0768 to -0.137.

Compared with AGCCTATA, GGACCAGA is higher in “PBM E-score” value: -0.133 for the first, 0.00068 for the second.

Going from TAAGACCA to ACATACGG, the “PBM E-score” value rises from -0.224 to 0.0295.

Compared with CTCCACCA, GGTCTAAA is lower in “PBM E-score” value: -0.0486 for the first, -0.0974 for the second.

Compared with GAAACAAC, ACTTTCTA is lower in “PBM E-score” value: 0.115 for the first, -0.242 for the second.

Going from CGAGCTGC to AAGCGACC, the “PBM E-score” value falls from 0.175 to 0.15.

Going from TACAGGGA to CGTCGGAC, the “PBM E-score” value rises from -0.00655 to 0.338.

Compared with AACGACCA, GGGGGCTA is higher in “PBM E-score” value: -0.269 for the first, 0.018 for the second.

Going from AGAACTGG to GGAGGACA, the “PBM E-score” value falls from 0.0747 to -0.00168.

Going from ATGCTTCA to AATGGCAT, the “PBM E-score” value rises from -0.0826 to 0.171.

First: AATACTGA
Second: AAAGGTGC
The “PBM E-score” value of the first is higher: -0.153 for the first, -0.159 for the second.

Going from GGGACTAA to AGCTGCTC, the “PBM E-score” value falls from 0.0852 to -0.164.

First: CAGCTTAC
Second: ATCGTACC
The “PBM E-score” value of the first is lower: -0.139 for the first, 0.0548 for the second.

Going from AAGTCCAA to CACGCAAA, the “PBM E-score” value falls from -0.00743 to -0.151.

Compared with AATTTCCA, GGTAGGCA is lower in “PBM E-score” value: 0.0738 for the first, -0.115 for the second.

First: AAAAGGGC
Second: AGGTAGAA
The “PBM E-score” value of the first is higher: -0.0943 for the first, -0.15 for the second.

Compared with CGAGTTGA, GCACGGAA is higher in “PBM E-score” value: -0.0275 for the first, 0.215 for the second.

Going from GCGCATCA to ATTAATCG, the “PBM E-score” value rises from -0.132 to 0.218.

Compared with GTGGGGCA, ATCACTTA is higher in “PBM E-score” value: -0.112 for the first, -0.0963 for the second.

First: GGCTCTGA
Second: CTGTAGGC
The “PBM E-score” value of the first is lower: -0.241 for the first, -0.194 for the second.

Compared with TCTCATCA, CACGTTAC is higher in “PBM E-score” value: -0.254 for the first, -0.216 for the second.

Compared with CTTACTTA, GGTGTAAA is higher in “PBM E-score” value: -0.205 for the first, -0.0035 for the second.

First: CTACACTA
Second: ATAGTTAC
The “PBM E-score” value of the first is lower: -0.32 for the first, -0.0759 for the second.

Compared with ACAGGTCG, AACCAACC is higher in “PBM E-score” value: -0.103 for the first, -0.0552 for the second.

First: AATTGTGG
Second: GATTTAAC
The “PBM E-score” value of the first is lower: -0.245 for the first, 0.338 for the second.

First: CTACGGCA
Second: GTCGTTCA
The “PBM E-score” value of the first is higher: 0.00463 for the first, -0.247 for the second.

Compared with CCGGCCAA, GGTTTCTA is lower in “PBM E-score” value: 0.261 for the first, 0.118 for the second.

First: CTGTGTTA
Second: ATTATCCA
The “PBM E-score” value of the first is lower: -0.0732 for the first, -0.0526 for the second.

Compared with ATGCCACC, CGGCGAGA is higher in “PBM E-score” value: -0.135 for the first, 0.287 for the second.

Going from CTACATAC to ATTATAGC, the “PBM E-score” value rises from -0.114 to 0.0053.

Going from CCTGCATC to AATGCCAG, the “PBM E-score” value rises from -0.213 to -0.0601.

First: ATGCGTAG
Second: ACGATACT
The “PBM E-score” value of the first is lower: -0.0444 for the first, 0.0468 for the second.
